In PubChem BioAssay AID624296 (National Center for Advancing Translational Sciences (NCATS), 2012):
In all, about 350,000 compounds went through this assay and about 9,900 (2.8%) were called active. The shares of active, inactive and inconclusive entries below differ from those in the screen. Calls come from the whole dose curve; as a rule, active = well fitted activation curve with a large enough effect; inconclusive = small, poorly fitted or top-dose-only effect; inactive = no such curve, though single readings can be large or run the other way. No potency is given beside an inconclusive call; the fits are too rough.

Test: A quantitative high throughput screen for small molecules that induce DNA re-replication in MCF 10a normal breast cells. For activity, positive = re-replication: % of control where 0% means no effect. Note: nearly all actives have a fitted effect of over 50% in size.
Conditions: MCF 10A DNA re-replication, Hoechst nuclear intensity, 48 h; activity, positive = re-replication: at 46.1 µM (top of the series)
Potency is the fitted concentration of half-maximal effect; tags give direction and shape of the fitted curve.

Row | Compound | Potency | activity, positive = re-replication
1 | O=C(NCC(c1ccco1)N1CCCCC1)c1ccc(S(=O)(=O)Nc2ccccc2)cc1 (stereo unspecified) | inconclusive [activator, single point] | –
2 | CC[C@H](C)[C@@H](C(=O)NCCCCCCCCCCC(=O)N1CCN(C(=O)OC(C)(C)C)CC1)n1cc(CCCCCNC(=O)OC(C)(C)C)nn1 | inconclusive [activator, full curve] | –
3 | Cc1onc(-c2c(Cl)cccc2Cl)c1C(=O)N1CCc2ccccc21 | inconclusive [activator, full curve, poor fit] | –
4 | CN(C)C(CNC(=O)c1ccc(NS(=O)(=O)c2ccc(F)cc2)cc1)c1ccco1 (stereo unspecified) | – | inactive: 15.4%
5 | Cc1c(C)c(C)c(S(=O)(=O)N2CCNCC2)c(C)c1C | – | inactive: -2.19%
6 | CC(C)OC(=O)CC(=O)CSc1nc2c(cc1C#N)CCCCCC2 | inconclusive [activator, partial curve, poor fit] | –
7 | COc1cc2ccccc2cc1C(=O)Nc1ccc(N2CCN(C)CC2)cc1 | inconclusive [activator, partial curve, poor fit] | –
8 | CC1(C)Oc2ccc(C(=O)N/N=C/c3ccc(O)cc3)cc2NC1=O | inconclusive [activator, partial curve, poor fit] | –
9 | C/C(=N\NC(=O)CNc1cccc(Cl)c1C)c1cccs1 | – | inactive: 19.9%
10 | COc1ccc(-c2sc3ccccc3c2-c2ccc(OCCN3CCOCC3)cc2)cc1 | inconclusive [activator, full curve, poor fit] | –
11 | CC1=CC(C)(C)N(C(=O)c2ccccc2)c2ccc(C)cc21 | – | inactive: 20.2%
12 | COc1ccc(-c2noc3c2-c2nc(-c4ccccc4C)sc2CC3)cc1 | inconclusive [activator, full curve, poor fit] | –
13 | COc1ccc(OC)c(Nc2nc(NCCO)c3ccccc3n2)c1 | inconclusive [activator, single point] | –
14 | O=C(Nc1cccc(C(F)(F)F)c1)c1ccc2nc(-c3ccco3)c(-c3ccco3)nc2c1 | inconclusive [activator, single point] | –
15 | Cc1ccc(S(=O)(=O)NCCCNc2ccc([N+](=O)[O-])cc2)cc1 | inconclusive [activator, single point] | –
16 | CC(C)c1ccc(NC(=O)CSc2nnc(-c3ccccn3)n2C)cc1 | – | inactive: -2.19%
17 | Cc1ccc(C)c(N2CCN(C3CCCC(C)C3)CC2)c1 (stereo unspecified) | inconclusive [activator, partial curve] | –
18 | Cc1cc(/C(N)=N/OC(=O)c2ccc(Cl)cc2)no1 | – | inactive: -0.074%
19 | Cn1c(=O)c2c(nc(N3CCc4ccccc4C3)n2Cc2ccccc2F)n(C)c1=O | – | inactive: -9.75%
20 | O=C(c1cc2n(n1)C(C(F)(F)F)CC(c1ccc(F)cc1)N2)N1CCCC1 (stereo unspecified) | inconclusive [activator, partial curve, poor fit] | –
21 | COC(=O)c1ccc(NC(=O)CN(c2ccc(OC)cc2)S(C)(=O)=O)cc1 | inconclusive [activator, partial curve, poor fit] | –
22 | COc1ccc2c(c1)c(=O)oc1cc(OCC(=O)NC3CCCCC3)ccc12 | active: 10.3 µM | –
23 | COc1cccc(CN(C)CC(=O)Nc2cccc(S(=O)(=O)N(C)c3ccccc3)c2)c1OC | inconclusive [activator, single point] | –
24 | CNc1nnc(-c2ccc(C)cc2)c2ccccc12 | inconclusive [activator, full curve, poor fit] | –

Row | Compound | Potency | activity, positive = re-replication
25 | Cc1ccc(NC(=O)C/C(N)=N/OC(=O)Nc2ccc(C)c(Cl)c2)cc1 | – | inactive: -10.1%
26 | COc1ccc(C(=O)N2CC3(C)CC2CC(C)(C)C3)cc1 (stereo unspecified) | inconclusive [activator, partial curve, poor fit] | –
27 | CCCOc1c(Cl)cc(/C=N/O)cc1OCC | inconclusive [activator, full curve, poor fit] | –
28 | COc1cc(Cl)ccc1NC(=O)COc1ccccc1C(=O)NN | inconclusive [activator, single point] | –
29 | Cc1ccc(CNC(=O)c2cccc3c2C(=O)c2ccc(N4CCC(C)CC4)cc2S3(=O)=O)cc1 | inconclusive [activator, partial curve, poor fit] | –
30 | O=C(c1ccccc1)c1nn(-c2ccccc2)c(=O)cc1C(F)(F)F | inconclusive [activator, single point] | –
31 | C/C(=N\NC(=O)COc1ccc(C(C)(C)C)cc1)c1ccc(N2CCOCC2)cc1 | active: 9.2 µM | –
32 | CCOc1ccc(CCNC(=O)C2CCN(C(=O)N(C)C)CC2)cc1OCC | inconclusive [activator, single point] | –
33 | CCn1cc(C(=O)NCCCOC(C)C)c(=O)c2cc(S(=O)(=O)N3CCC(C)CC3)ccc21 | – | inactive: 8.49%
34 | COc1ccc(-c2sc3ccc(N4CCOCC4)cc3c2C#CC2(O)CCCCC2)cc1 | inconclusive [activator, partial curve, poor fit] | –
35 | O=C(c1ccc(F)cc1)N(c1ccccn1)C1CCCCC1 | – | inactive: 0.237%
36 | Cc1occc1-c1nc(-c2ccccn2)no1 | inconclusive [activator, single point] | –
37 | CN(C)CCNC(=O)c1cccc2ccc(-c3ccc(-c4ccccc4)cc3)nc12 | inconclusive [activator, single point] | –
38 | CC1(C)c2ccccc2C(=O)c2ccccc21 | – | inactive: 5.48%
39 | c1ccc(COc2ccccc2CNC23CC4CC(CC(C4)C2)C3)cc1 | – | inactive: 23.2%
40 | CCC(C)NC(=O)c1ccc(C(=O)c2ccccc2)cc1 (stereo unspecified) | inconclusive [activator, single point] | –
41 | Cc1cc(=O)oc2cc(NC(=O)c3ccc(OC(F)F)cc3)ccc12 | – | inactive: 0.55%
42 | Cc1cc(=O)oc2c1c(C)nn2-c1cccc(Cl)c1 | inconclusive [activator, full curve, poor fit] | –
43 | O=C(Cn1ncc(Cl)c(Cl)c1=O)NC1CCS(=O)(=O)C1 (stereo unspecified) | inconclusive [activator, partial curve, poor fit] | –
44 | COc1cccc(NC(=O)c2cnc(SCC(=O)NCc3ccc4c(c3)OCO4)n(C)c2=O)c1 | inconclusive [activator, single point] | –
45 | COc1ccc(-c2noc(C3CCCN(C(=O)Nc4ccccc4)C3)n2)cc1 (stereo unspecified) | inconclusive [activator, single point] | –
46 | COc1cccc(NC(=O)C2C(c3ccccc3)C2(Cl)Cl)c1 (stereo unspecified) | inconclusive [activator, single point] | –
47 | O=C(CN1CCN(c2cccc(C(F)(F)F)c2)CC1)N(C1CCCC1)C1CCS(=O)(=O)C1 (stereo unspecified) | – | inactive: 5.55%
48 | c1ccc2nc3c(cc2c1)CCCCC3 | inconclusive [activator, partial curve, poor fit] | –

Row | Compound | Potency | activity, positive = re-replication
49 | CC(C)OC(=O)CSc1nnc(CNc2ccc(Cl)cc2)n1C | – | inactive: -16.8%
50 | CN(C)C(CNC(=O)c1ccc(C(=O)c2ccccc2)cc1)c1ccccc1 (stereo unspecified) | inconclusive [activator, single point] | –
51 | O=C(c1ccc(Cl)cc1)C1CCCN(Cc2cnn(-c3ccccc3)c2)C1 (stereo unspecified) | inconclusive [activator, single point] | –
52 | O=C(O)CSc1nnc2c(n1)[nH]c1ccccc12 | – | inactive: 19.5%
53 | CCCNS(=O)(=O)c1ccc(NC(=O)c2ccccn2)cc1 | inconclusive [activator, full curve, poor fit] | –
54 | COc1ccccc1CNC(=O)c1ccc(N(C)S(=O)(=O)c2ccc(C)cc2)cc1 | inconclusive [activator, partial curve, poor fit] | –
55 | Cc1ccc(-c2cc(C(=O)N3N=C(C(F)F)CC3(O)C(F)F)c3ccccc3n2)cc1C (stereo unspecified) | – | inactive: 2.53%
56 | COc1cc(C(=O)NC2CCCc3c2cnn3-c2ccccc2F)cc(OC)c1OC (stereo unspecified) | – | inactive: 7.76%
57 | COc1ccc(-n2nc3c(N4CCC(C(=O)NCCc5ccccc5C)CC4)nnc(C)c3c2C)cc1 | active: 9.2 µM | –
58 | Cc1ccc(C)c(N=Nc2ccc(O)c3ncccc23)c1 | active: 16.4 µM | –
59 | CCN1CCN(c2ccc(S(=O)(=O)N3CCCCC3)cc2NC(=O)CC(NC(C)=O)c2ccccc2)CC1 (stereo unspecified) | – | inactive: 4.63%
60 | Cc1cc(C(=O)O)ccc1-c1ccc(/C=N/n2cnnc2)o1 | – | inactive: -4.84%
61 | COc1ccc(-c2csc(N(CCCN(C)C)C(=O)c3cc(OC)c(OC)c(OC)c3)n2)cc1 | – | inactive: 1.33%
62 | COc1ccc2c(c1)[nH]c1c(=O)n(Cc3ccccn3)cnc12 | – | inactive: 1.05%
63 | CSc1nsc(SC)c1NC(=O)OCc1ccccc1 | inconclusive [activator, full curve, poor fit] | –
64 | CN(CC(=O)Nc1ccc(F)cc1)C(=O)Cn1cnc2ccc([N+](=O)[O-])cc2c1=O | – | inactive: 3.94%
65 | CCc1ccc2oc(C(=O)NCc3ccncc3)c(C)c2c1 | – | inactive: 4.53%
66 | O=C1CCCc2nc(N3CCCCC3)sc21 | – | inactive: 15.7%
67 | CCOC(=O)c1c(NC(=O)CN2C(=O)C(=O)N(C(C)C)C2=O)sc(C)c1CC | – | inactive: -1.19%
68 | Clc1ccccc1CSc1ncccn1 | inconclusive [activator, single point] | –
69 | COc1ccccc1/C=C1\Oc2cc(OC(=O)N3CCOCC3)ccc2C1=O | inconclusive [activator, single point] | –
70 | Cc1nn(-c2ccccc2)c(Oc2ccccc2)c1C=O | inconclusive [activator, partial curve, poor fit] | –
71 | CC(C)(C)OC(=O)[C@H](Cc1ccccc1)NC(=O)c1[nH]cnc1C(=O)Nc1ccc(Cl)cc1 | inconclusive [activator, single point] | –
